# From PubChem BioAssay AID651820 (National Center for Advancing Translational Sciences (NCATS), 2012)
# In all, about 340,000 compounds went through this assay and about 12,000 (3.5%) were called active. The inconclusive results got no clear call from the source; some entries with a clear call stand among them for comparison. Calls follow the shape of the dose curve; as a rule, active = well fitted inhibition curve with a large enough effect; inconclusive = small, poorly fitted or top-dose-only effect, or another doubt; inactive = no such curve, though single readings can be large or run the other way. No potency is given beside an inconclusive call; the fits are too rough.
# Test: qHTS Assay for Inhibitors of Hepatitis C Virus (HCV)
# Conditions: Huh7.5.1 HCVcc-Cre (HCVcc is cell-culture hepatitis C virus) infection, luciferase reporter, 44 h; activity change, negative = inhibition: at 41.8 µM (top of the series)
# In short: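 Reporter virus HCVcc-Cre (~0.5 moi) infects cells exposed to compound; seeding density 1,000 cells/well with 4 h settling beforehand. Luminescence, 15 sec read, taken 44 h post-infection following a 15 min RT substrate incubation.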
# % is scaled to controls: 0 for no effect and ±100 for the full control effect; potency is read from the fitted curve at half-maximal effect; tags tell the direction and shape of the fitted curve.
Structure (SMILES),"activity change, negative = inhibition",Potency
CCCCOC(=O)Cn1c(-c2ccccc2)nc2ccccc2c1=O,inactive: -2.42%,
COc1ccc(Nc2nc(N)nc(CSC(=S)N3CCN(c4ccccc4)CC3)n2)cc1,,"inconclusive [inhibitor, partial curve]"
COC(=O)C1=C(c2ccc(F)cc2F)C[C@@H]2CC[C@H]1N2C(=O)NCCCOC(C)C,inactive: 4.48%,
COc1ccc(Cn2c(O)c(/C=N/NC(=O)c3cccnc3)c3ccccc3c2=O)cc1,,"inconclusive [inhibitor, single point]"
Nc1nc2ccccc2n1/N=C/c1ccc(-c2ccccc2)o1,,"inconclusive [inhibitor, single point]"
Cc1ccc(NC(=O)CCCNC(=O)c2ccc(Cl)cc2)cc1S(=O)(=O)N1CCCCC1,,"inconclusive [inhibitor, single point]"
CCOc1ccc(C(C(=O)NC2CCCCC2)N(C(=O)c2ccco2)c2ccc(-n3cnnn3)c(C)c2)cc1 (stereo not given),,"inconclusive [inhibitor, partial curve]"
O=C(Nc1ccc(N2CCN(C(=O)c3ccccc3)CC2)c(Cl)c1)c1ccco1,,active: 10 µM
O=C(c1ccccc1)N1CCN(c2ccc([N+](=O)[O-])c(NCc3cccnc3)c2)CC1,,"inconclusive [inhibitor, partial curve]"
Cc1ccc(S(=O)(=O)N2CCN(C(=O)c3cc(S(=O)(=O)N(C)C)ccc3N3CCCC3)CC2)c(C)c1,,"inconclusive [inhibitor, single point]"
Cc1ccc(NC2CCCN(C(=O)CCC(=O)c3ccccc3)C2)cc1C (stereo not given),inactive: 2.95%,
Nc1ccccc1SC/C=C/CSc1ccccc1N,,"inconclusive [inhibitor, partial curve]"
CCN1CCN(c2ccc(S(=O)(=O)N3CCOCC3)cc2NC(=O)C(C)Oc2ccc(Cl)cc2)CC1 (stereo not given),inactive: 1.72%,
Cc1ccc2c(c1)c1c(c(=O)n(-c3ccccc3C)c(=O)n1CC(=O)NCC1CCCO1)n2C (stereo not given),inactive: -25.7%,
N#CC1(NC(=O)CSc2nc3ccc([N+](=O)[O-])cc3s2)CCCCC1,,"inconclusive [inhibitor, single point]"
CC1(C)OC(=O)C(=CNc2ncccn2)C(=O)O1,inactive: 11.9%,
Nn1c(SCc2ccc(Br)cc2)nnc1-c1ccccn1,inactive: 16.4%,
COc1nc(N(C)S(=O)(=O)c2ccc(C)cc2)nc(C)c1Cl,,"inconclusive [inhibitor, partial curve]"

Structure (SMILES),"activity change, negative = inhibition",Potency
COc1ccc(/C=C2/SC(=S)N(Cc3ccccc3)C2=O)cc1O,,"inconclusive [inhibitor, single point]"
COc1ccc(N(CC(=O)Nc2ccccc2C(=O)NCCc2ccccc2)S(C)(=O)=O)cc1OC,inactive: 11.4%,
Cc1cc(C)cc(OCC(=O)OCC(=O)c2ccc3c(c2)NC(=O)CO3)c1,inactive: -0.207%,
COc1cccc(=O)c2c(C)oc(C)c12,inactive: 17.6%,
Cc1ccc(-c2noc(-c3ccccc3C(=O)NCC3CCCO3)n2)cc1 (stereo not given),,"inconclusive [inhibitor, partial curve]"
CC(C)Cc1ccc(C(C)C(N)=NCCc2ccccc2)cc1 (stereo not given),,"inconclusive [inhibitor, single point]"
Cc1cccc(C)c1NC(=O)CN(C)C(=O)c1cccc(S(=O)(=O)N2CCN(c3ccc(F)cc3)CC2)c1,,"inconclusive [inhibitor, full curve, poor fit]"
Cc1ccc(SCCNC(=S)Nc2ccc(C)c(C)c2)cc1,inactive: -22.3%,
O=c1[nH]c(=O)n([C@H]2C[C@H](O)[C@@H](CO)O2)cc1I,inactive: 15.8%,
CC(C)CCn1cnc2c(cnn2-c2ccc(F)cc2)c1=O,,active: 10 µM
NC(=O)c1oc2ccccc2c1NC(=O)c1nc2ccccc2s1,,"inconclusive [inhibitor, single point]"
Cc1ccc(C(=O)N/C(=C\c2ccc(C(C)C)cc2)C(=O)NCCCN2CCOCC2)cc1,,"inconclusive [inhibitor, single point]"
Cc1ccc(S(=O)(=O)NCCC(=O)OCC(=O)N(C)c2ccccc2)cc1,,"inconclusive [inhibitor, single point]"
COC(=O)c1c(NC(=O)/C=C/C(=O)O)sc(C)c1-c1ccc(C)c(C)c1,inactive: -3.92%,
NC(=O)CC(NC(=O)Cc1ccc(Br)cc1)c1ccc(N2CCN(c3ccc(F)cc3)CC2)c([N+](=O)[O-])c1 (stereo not given),,"inconclusive [inhibitor, partial curve]"
NS(=O)(=O)c1ccc(NC(=O)CN2C(=O)CCC2=O)cc1,,"inconclusive [inhibitor, partial curve]"
COc1cc(C(=O)Nc2ccc(-c3nnc(-c4ccco4)o3)cc2)cc(OC)c1OC,,"inconclusive [inhibitor, partial curve]"
